Out of some 110,000 compounds screened, about 230 (0.21%) showed an effect of 50% or more. Some of the results follow.
What follows are molecules tested against DPAP1 (Plasmodium falciparum, UniProt Q8IIJ9) (assay: primary screen, percent inhibition; read by cleavage of a fluorogenic dipeptide substrate; higher = more effect of the substance).
Sequence of DPAP1 (Q8IIJ9 whole entry, looked up): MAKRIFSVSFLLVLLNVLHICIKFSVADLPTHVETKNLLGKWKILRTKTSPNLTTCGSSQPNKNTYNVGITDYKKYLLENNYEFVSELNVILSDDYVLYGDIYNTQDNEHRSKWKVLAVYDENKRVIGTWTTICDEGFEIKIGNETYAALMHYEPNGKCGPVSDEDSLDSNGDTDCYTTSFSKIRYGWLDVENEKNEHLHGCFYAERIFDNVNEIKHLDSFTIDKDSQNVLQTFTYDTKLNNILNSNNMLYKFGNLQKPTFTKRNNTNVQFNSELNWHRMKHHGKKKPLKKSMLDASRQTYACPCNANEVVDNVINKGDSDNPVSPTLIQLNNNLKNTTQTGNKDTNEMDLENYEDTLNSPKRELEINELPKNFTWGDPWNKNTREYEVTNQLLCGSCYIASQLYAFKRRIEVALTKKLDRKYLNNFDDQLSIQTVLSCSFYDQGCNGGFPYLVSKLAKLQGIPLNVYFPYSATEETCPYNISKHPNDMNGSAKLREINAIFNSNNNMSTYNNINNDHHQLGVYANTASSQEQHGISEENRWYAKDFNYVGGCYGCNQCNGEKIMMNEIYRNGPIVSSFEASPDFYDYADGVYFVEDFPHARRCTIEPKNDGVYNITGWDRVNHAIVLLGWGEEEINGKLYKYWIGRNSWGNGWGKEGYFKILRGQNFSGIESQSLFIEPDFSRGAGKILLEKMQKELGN
Design: species or system P. falciparum D10 trophozoite lysates; single well
`Cc1cc(C)c(C)c(OCCCCN2CCCCC2)c1` was tested, and the “% Inhibition @ 10 uM” value was -4.18%.
With `CCOc1cc2c(cc1OCC)C(c1ccc(C#N)cc1)NCC2` (centres unmarked) the “% Inhibition @ 10 uM” value was -4.52%.
`O=C(c1ccc(F)cc1)N1CCC/C1=N/c1ccc(Cl)cc1` was tested, and the “% Inhibition @ 10 uM” value was -7.4%.
In the case of `CN1C(=O)N(C)C(=O)C(Cc2cccc(F)c2)(Cc2cccc(F)c2)C1=O`, the “% Inhibition @ 10 uM” value was -3.07%.
In the case of `COc1ccccc1/C=C1\N=C(c2ccccc2F)OC1=O`, the “% Inhibition @ 10 uM” value was -1.51%.
In the case of `CC(C)C[C@H](NC(=O)c1ccc(-c2ccccc2Cl)cc1)C(=O)NCC#N`, the “% Inhibition @ 10 uM” value was -6.46%.
`CC1(C)CC(=O)C(/C=N/c2ncccn2)=C(O)C1` was tested, and the “% Inhibition @ 10 uM” value was -1.06%.
With `CC(=O)c1ccc2c(c1)c1ccccc1n2Cc1ccccc1` the “% Inhibition @ 10 uM” value was 5.44%.
`O=C(Cn1c(=O)c2cccn2c2cccnc21)N1CCC(Cc2ccccc2)CC1` was tested, and the “% Inhibition @ 10 uM” value was -1.24%.
For `CC(=O)O[C@@H]1NC(=O)[C@H]1NC(=O)C1(NC(=O)c2ccc(-c3csc(N4CCN(C)CC4)n3)cc2)CCCCC1`, the “% Inhibition @ 10 uM” value was 1.7%.
For `COC(=O)c1ccc2c(C(=O)C(F)(F)F)cn(CC(=O)NC(C)C)c2c1`, the “% Inhibition @ 10 uM” value was 0.895%.
`Nc1cnn(C2OC(COC(=O)c3ccccc3)C(O)C2O)c(=O)n1` (centres unmarked) was tested, and the “% Inhibition @ 10 uM” value was 1.11%.
With `COc1ccc(N2CCn3c2nc2c3c(=O)n(Cc3ccccc3)c(=O)n2C)cc1` the “% Inhibition @ 10 uM” value was 0.51%.
For `NC(=O)c1c(NC(=O)COc2ccc(Cl)cc2)sc2c1CCCCC2`, the “% Inhibition @ 10 uM” value was 65.1%.
For `C/C(=C\C(=O)Nc1ccc(OCc2ccccc2)cc1)C(=O)O`, the “% Inhibition @ 10 uM” value was 4.93%.
For `Cc1nc2ccccc2nc1C(N)=O`, the “% Inhibition @ 10 uM” value was 3.85%.
With `Cc1cc2c(c(=O)o1)C(c1ccc(Br)o1)C(C#N)=C(N)O2` (centres unmarked) the “% Inhibition @ 10 uM” value was 3.01%.
`COc1ccc(C2(C(=O)Nc3ccc(C(=O)Nc4ccc(OC)cc4OC)cc3)CCOCC2)cc1` was tested, and the “% Inhibition @ 10 uM” value was 3.9%.
For `FC(F)Oc1ccc(Cl)cc1C1C=C(c2cccs2)Nc2ncnn21` (centres unmarked), the “% Inhibition @ 10 uM” value was 1.73%.
`N#C/C(=C\c1ccccc1Cl)c1nc(-c2cc3c(ccc4ccccc43)oc2=O)cs1` was tested, and the “% Inhibition @ 10 uM” value was 3.74%.
`CC(C)c1nnc(N2C(=O)c3oc4ccccc4c(=O)c3C2c2ccc(Cl)cc2)s1` (centres unmarked) was tested, and the “% Inhibition @ 10 uM” value was -8.55%.
`N#Cc1c(-c2ccc([N+](=O)[O-])cc2)cc(C2CC2)nc1N` was tested, and the “% Inhibition @ 10 uM” value was -4.04%.
For `O=C(NCC1CCCO1)c1cc2nc(-c3ccc(Br)cc3)cc(C(F)(F)F)n2n1` (centres unmarked), the “% Inhibition @ 10 uM” value was 2.4%.
`O=C(c1cc(=O)c2cc(Cl)ccc2o1)N(Cc1cccs1)C1CCS(=O)(=O)C1` (centres unmarked) was tested, and the “% Inhibition @ 10 uM” value was 6.56%.
For `COc1ccc(-n2cc(-c3ccccc3)c3c(NCCCN4CCCC4=O)ncnc32)cc1`, the “% Inhibition @ 10 uM” value was 2.4%.
In the case of `Cc1c(C(=O)NC2CCCCC2)sc2ncn(CC(=O)N3CC(C)CC(C)C3)c(=O)c12` (centres unmarked), the “% Inhibition @ 10 uM” value was 4.35%.
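Note: 30 min substrate incubation versus DMSO and 10 µM JCP410 controls.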
